From the supplement of paper PMC11417369
± gives the standard deviation of the averaged measurements. Some of the results follow.

tested on: PfAP2-EXP AP2 domain (GST-tagged); assay: gcPBM binding intensity (ln(normalized median fluorescence intensity)); higher = stronger DNA binding
Procedure, shortened: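 After 1 h on an Agilent 4 × 180k array of primer-extended double-stranded 36-bp intergenic genomic probes and negative controls, bound GST-tagged P. falciparum DNA-binding domains were detected with Alexa488 anti-GST antibody and scanned at 488 nm. The domains had been expressed in E. coli, and binding took place in 1× PBS with 1% milk, 0.2 mg/ml BSA, 0.5% salmon testes DNA and 0.03% Triton X-100. Binding intensity is the highest Masliner-normalised natural-log median intensity across replicate spots of either probe orientation.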

Point of comparison: “AATTTATATGTTTTGTGTACACAATTTATTAAATTA [XGTACX_site6448]”, “gcPBM binding intensity (ln)” value 9.03 ± 0.29. Against it:
- AACAAACACGGACACACACACACACTAGAATGATTA [CACACA_site5364] — within error, 8.71 ± 0.51
- AAAAATTTAAGTGGGGGTACATTTTTTTAACACCTT [XGTACX_site1093] — within error, 9.46 ± 0.48
- TAATATATTAACATGGGTACATATTATTTCATGTGT [XGTACX_site5985] — within error, 8.4 ± 0.34
- ATATTTAAATGTAATACATGCAAATTTGAACATTTT [TGCATGCA_site736] — within error, 9.04 ± 0.32
- AAAAAAAAAAAAATCACACATATGTATTTATATATA [CACACA_site5790] — lower, 8.21 ± 0.46
- AATAAATAAGCAACATGTACATACAAATATATACAT [XGTACX_site8529] — within error, 8.48 ± 0.35
- TTTAATTTTTTTAATTCACACATTATTCCATCCTTT [CACACA_site5480] — within error, 8.6 ± 0.31
- ATCTAATAAAAATACACACACATATGATTTGTGAAT [CACACA_site1867] — lower, 8.22 ± 0.45
- ATTTTCCATTGTGCTACACACAACGGTTCGCAATAA [CACACA_site2974] — within error, 8.56 ± 0.34
- TAAAAAAAATAGTCAAGTACATAAGAAGGGAAGAAA [XGTACX_site8733] — within error, 8.84 ± 0.45
- ACTAAAAGATATATAATTTCTTTCTTATTTATTTTT [CACACA_negctrl_site842] — lower, 8.1 ± 0.35
- TTATTCATATTATCATGTACTTATATATATTGTCAT [XGTACX_site2231] — within error, 8.59 ± 0.4
- TGTTTCCAAAAAAAAAAAAAAAAAAAAAAAAAAAAA [CACACA_negctrl_site358] — lower, 7.96 ± 0.33
- AAAAAAACATGAAACACACACAAATATTTATTTATA [CACACA_site6967] — within error, 8.52 ± 0.42
- TATTATATATATAAATGTACTTATTTTAATTCCCCT [XGTACX_site8638] — within error, 8.52 ± 0.26
- TTTTGTTTATTATGATTCAAAATGATTTTATCTTTG [TGCATGCA_negctrl_site425] — within error, 8.29 ± 0.46
- ATTACATACACGCGCACACACAAAAAAAAAAAAAAA [CACACA_site1334] — within error, 8.59 ± 0.26
- ATATATATATATATATGTACTTATATATAATATAGA [XGTACX_site3488] — higher, 10.1 ± 0.47
- GTACTCTTCTCCAGACTGCACTATACGACTCGTACA [GTGCAC_site9770] — within error, 9.2 ± 0.33
- TGGTATGTTTTACAAAGTACCCATCGATTCTTATGT [XGTACX_site2822] — within error, 8.48 ± 0.35
- AAAAAAAAAAAAAGTACACACTTTTGCGTACATGTA [CACACA_site7449] — lower, 8.41 ± 0.29
- AAAAAGTAGTAAAACAGTACAGTATTTATGCCTATT [XGTACX_site6434] — within error, 8.63 ± 0.61
- AATATATTTTTCTACCGTACATAATAAAATATATAT [XGTACX_site1777] — within error, 8.61 ± 0.37
- TATTTATTTATTTATTGTACATAAGTATATATTATA [XGTACX_site6566] — within error, 8.56 ± 0.39
- GAACCACTAAAATGAGCATGCTCATATTTACATATA [TGCATGCA_site1033] — within error, 8.8 ± 0.36
- TTTTTTTTTTTTTTTGCATGTTGTTTAATGTATTGT [TGCATGCA_site772] — within error, 8.38 ± 0.4
- TATCATTTTATTATTCTACACACTTATCTATAATTA [CACACA_site7894] — within error, 8.6 ± 0.54
- AAATAAGAGCGTAGCACACACGCATTTTATAAATGT [CACACA_site741] — within error, 8.68 ± 0.47
- TGTTGATGATATTACACACCCAATGAGAAAAGGAAT [CACACA_site2072] — within error, 8.79 ± 0.41
- TAAAAATGTGGACACACACACATATTTATATTTAAT [CACACA_site6827] — lower, 8.38 ± 0.29
- TTTTACAAAATAAAAATATAGAATACGGTAAATTAT [GTGCAC_negctrl_site40] — within error, 8.64 ± 0.54
- TATTTATTACTATGTAAACACACATGCAATATATGT [CACACA_site8288] — within error, 8.65 ± 0.38
- TGTAGTCTGGAGAAACGTACACAGTATCTGGTAACA [XGTACX_site4938] — lower, 8.34 ± 0.36
- AAAGGGGATATATGAACACACAAAAAAAAAATATAT [CACACA_site2896] — within error, 8.89 ± 0.6
- TATATTTTATAAAAAAGTACACATGAAAATGTATTT [XGTACX_site5889] — within error, 8.48 ± 0.27
- ATATTTAAAGAATAAGTGCAAAATGTAATTAATTTT [GTGCAC_site9901] — within error, 8.55 ± 0.31
- AAATTTTATTATAGCAGTACAATATAATATTATTAA [XGTACX_site1971] — lower, 8.41 ± 0.3
- TTTTTTCCTTTTAATTGTACACAGATATAATATATT [XGTACX_site2230] — within error, 8.69 ± 0.36
- AAATATTTTTTTTCTACACACATACAAATATAGATT [CACACA_site7164] — within error, 8.57 ± 0.51
- ATGCCCCATATAAACACACAAATAAAAAGAATATAC [CACACA_site7292] — within error, 9.21 ± 0.69
- AAATTAAAAAGAGCTTGTACAGATGTATACATAATA [XGTACX_site3882] — within error, 8.81 ± 0.64
- TATATGAAGCTATAGACACACATATAAAAATAGAAT [CACACA_site1313] — within error, 8.82 ± 0.46
- TTTATAATTCTTACAACACACAATGTACATTTATAT [CACACA_site1261] — within error, 8.66 ± 0.34
